These results are taken from PMC4336329 (PLoS ONE, 2015).

In all, about 310,000 compounds went through this assay and about 14,000 (4.5%) showed an effect of 50% or more. Effects have a minus sign here. This is one part of the list.
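Further: peak tail current of the secondary pulse compared with the same well before compound.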

human ether-à-go-go-related gene (hERG) potassium channel, sequence (Q12809 whole entry, looked up): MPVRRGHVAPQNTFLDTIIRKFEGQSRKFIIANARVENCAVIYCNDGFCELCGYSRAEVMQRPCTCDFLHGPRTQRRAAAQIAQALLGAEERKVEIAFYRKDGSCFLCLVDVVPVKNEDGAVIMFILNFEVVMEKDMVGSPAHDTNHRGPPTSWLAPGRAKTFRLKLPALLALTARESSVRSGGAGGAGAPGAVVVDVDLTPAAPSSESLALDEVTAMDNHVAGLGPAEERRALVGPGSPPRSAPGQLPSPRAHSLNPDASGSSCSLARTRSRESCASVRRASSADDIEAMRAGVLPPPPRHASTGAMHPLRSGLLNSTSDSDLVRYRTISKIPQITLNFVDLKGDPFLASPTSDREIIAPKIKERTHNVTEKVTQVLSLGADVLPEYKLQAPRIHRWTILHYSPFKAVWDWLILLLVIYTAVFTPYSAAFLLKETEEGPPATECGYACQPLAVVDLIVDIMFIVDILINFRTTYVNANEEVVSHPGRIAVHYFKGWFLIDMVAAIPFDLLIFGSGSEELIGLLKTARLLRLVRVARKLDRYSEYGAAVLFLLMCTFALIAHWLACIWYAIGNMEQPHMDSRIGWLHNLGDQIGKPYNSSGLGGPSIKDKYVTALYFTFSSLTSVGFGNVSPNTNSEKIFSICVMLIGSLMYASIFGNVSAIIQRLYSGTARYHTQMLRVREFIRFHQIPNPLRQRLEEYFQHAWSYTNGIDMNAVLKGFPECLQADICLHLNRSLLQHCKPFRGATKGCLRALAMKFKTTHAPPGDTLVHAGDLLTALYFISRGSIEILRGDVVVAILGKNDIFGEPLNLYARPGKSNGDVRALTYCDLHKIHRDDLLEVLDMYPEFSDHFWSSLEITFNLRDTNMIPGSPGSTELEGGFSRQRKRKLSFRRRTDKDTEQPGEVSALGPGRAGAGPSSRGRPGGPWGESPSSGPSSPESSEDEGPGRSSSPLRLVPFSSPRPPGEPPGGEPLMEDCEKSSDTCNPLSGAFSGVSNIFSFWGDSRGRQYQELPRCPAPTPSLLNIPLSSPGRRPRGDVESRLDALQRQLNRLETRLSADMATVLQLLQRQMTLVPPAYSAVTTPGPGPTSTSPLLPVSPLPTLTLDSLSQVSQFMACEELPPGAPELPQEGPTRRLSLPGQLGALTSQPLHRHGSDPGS

The assay addresses human ether-à-go-go-related gene (hERG) potassium channel (human, UniProt Q12809). As to the kind of experiment: primary screen, population patch clamp on CHO cells stably expressing hERG.
As for `Cc1ccc(S(C)(=O)=NS(=O)(=O)c2cccc3nsnc23)cc1` (stereo not drawn), the “hERG current change (%, negative = inhibition) at 10uM” value came out at 7.47%. The same measure for `COc1cc2c(-c3ccc4[nH]ccc4c3)c(-c3ccc(C#N)cc3)oc(=O)c2cc1OC`: 20.9%; for `Cc1nn(-c2ccccc2)c(C)c1C(=O)NCCc1ccc(Cl)cc1`: -19.5%; for `CN(Cc1ccccc1)C(=O)c1cn(C)c2ccc(S(=O)(=O)N3CCCC3)cc2c1=O`: 12.6%. To `Clc1ccc(-c2cc(C3CCNCC3)[nH]n2)c(Cl)c1` belongs 10.2%; to `O=S(=O)(NC1CC1)c1ccc(Cl)cc1`, 9.82%; to `COc1cccc(N2CC(NC(=O)C(=O)c3c[nH]c4ccccc34)CC2=O)c1` (stereo not drawn), 11.6%. The same measure for `CCC(C(=O)NCc1ccc(F)cc1)N(Cc1ccco1)C(=O)c1snc(C(N)=O)c1N` (stereo not drawn): -32%; for `Cc1ccc(C)c(Cn2nnc3c(=O)[nH]c(C4CCN(C(=O)c5ccco5)CC4)nc32)c1`: -27.3%.

As to `CC(=O)c1cccc(NC(=O)CNC(=O)Cc2ccccc2)c1`, the “hERG current change (%, negative = inhibition) at 10uM” value is given as 35%.

Turning to `O=C(CCC1CCCN(C(=O)c2ccsc2)C1)NCc1ccc(F)c(F)c1` (stereo not drawn), the “hERG current change (%, negative = inhibition) at 10uM” value was -11.4%. As to `COc1cc(C2CC(=O)c3c(ccc4ccccc34)N2)ccc1O` (stereo not drawn), the “hERG current change (%, negative = inhibition) at 10uM” value is recorded as 3.02%. The same measure for `CN(C)CCN1C(=O)c2oc3ccc(F)cc3c(=O)c2C1c1ccncc1` (stereo not drawn): -2%; for `COc1cccc(/C=N/NC(=O)CCc2ccccc2)c1`: -16.9%; for `COc1ccc(C2N(c3cc(C)on3)C(=O)C3CCCN32)cc1` (stereo not drawn): 20.5%. To `CCOC(=O)c1c(C)n(CCNC(C)=O)c2ccc(OC)cc12` belongs -6.42%; to `CC1CN(c2nc3ccccn3c(=O)c2/C=C(\C#N)C(=O)N2CCOCC2)CC(C)O1` (stereo not drawn), 6.63%. The same measure for `CS/C(N)=N/N=C/c1ccc2c(c1)OCO2`: 9.01%; for `COc1ccc2c(N)c(C(=O)NN)[nH]c2c1`: 2.16%.

`COc1ccc2[nH]cc(CCNC(=O)COc3ccc4ccc(=O)oc4c3)c2c1`: the “hERG current change (%, negative = inhibition) at 10uM” value was -3.62%. To `Cc1nc2ccc(NC(=O)c3cccs3)cc2c(=O)n1Cc1ccc(Cl)cc1` belongs 9.84%; to `COCCNS(=O)(=O)c1ccc2c(c1)C(=O)c1cc(S(=O)(=O)NCCOC)ccc1-2`, -20.5%. To `Cc1c(OC(C)C(=O)NCCN2CCOCC2)ccc2c3c(c(=O)oc12)CCC3` (stereo not drawn) belongs 3.35%. To `CCO.CCOc1ccc(Cl)cc1C(c1c(C)[nH][nH]c1=O)c1c(C)[nH][nH]c1=O` belongs 5.54%; to `COc1ccccc1C(=O)NCC(=O)OCC(=O)Nc1cccc(S(=O)(=O)N(C)C)c1`, 0.964%; to `Cc1ccc(N=Cc2c(O)c3ccccc3oc2=O)c(C)c1`, 12.5%. Turning to `CON(C)c1nc(C2CCCCC2)c2cc(C)ccc2n1`, the “hERG current change (%, negative = inhibition) at 10uM” value is given as -19.7%. To `C[C@H](NC(=O)c1ccccc1Cl)C(=O)OCC(=O)N1CC2(C)CC1CC(C)(C)C2` (stereo partly drawn) belongs -3.77%; to `O=C(Cc1ccc(F)cc1)Nc1c2c(nn1-c1cccc(Cl)c1)CS(=O)C2` (stereo not drawn), -12.4%. To `O=S(=O)(NCCc1ccccc1)c1ccc(-n2cnnn2)cc1` belongs -56.7%. Turning to `CCN(C(=O)Nc1ccccc1)c1ccccc1`, the “hERG current change (%, negative = inhibition) at 10uM” value stood at 4.25%. To `CCN(CC)C(=O)c1ccccc1NS(=O)(=O)c1ccc(C)cc1` belongs -2.46%; to `COc1cc(/C=N/NC(=O)COc2c(C)cc([N+](=O)[O-])cc2C)ccc1OC(=O)c1ccccc1Br`, 30.6%. `O=c1cccc2n1CC1CC2CN(S(=O)(=O)c2cc(Cl)ccc2Cl)C1` (stereo not drawn): the “hERG current change (%, negative = inhibition) at 10uM” value is listed as -33%. In the case of `COC(=O)COc1cccc2c(=O)n(CC(=O)N3CCCc4ccccc43)ccc12`, the “hERG current change (%, negative = inhibition) at 10uM” value is on record as 8.33%. `CN(c1ccc(C(=O)N2CCOCC2)cc1[N+](=O)[O-])C1CCCCC1`: the “hERG current change (%, negative = inhibition) at 10uM” value is reported as -23.1%. The same measure for `N#CCCN1CCN(C(=S)c2ccc(-c3ccc(Cl)c(Cl)c3)o2)CC1`: -14.1%.

`CCOc1cc(N2CCOCC2)c(OCC)cc1NC(=O)CN1C(=O)NC2(CCCCCCC2)C1=O`: the “hERG current change (%, negative = inhibition) at 10uM” value is -63%.

Consider `CCOC(=O)C(NC(=O)NCc1ccccc1)(OCC)C(F)(F)F` (stereo not drawn), for which the “hERG current change (%, negative = inhibition) at 10uM” value was 11.2%. Turning to `COc1cc(OC)cc(-c2nc3ccccc3c(=O)o2)c1`, the “hERG current change (%, negative = inhibition) at 10uM” value is 0.0946%. In the case of `CC(C)c1ccc(N(CCc2ccccn2)C(=O)C(C)(C)C)cc1`, the “hERG current change (%, negative = inhibition) at 10uM” value is -5.99%.

As to `O=C(CCc1nnc(CCCCc2ccccc2)o1)NCc1cccc(F)c1`, the “hERG current change (%, negative = inhibition) at 10uM” value is -22.3%. For the molecule `COc1ccccc1C(=O)NCC(=O)N/N=C(\C)Cc1ccccc1`, the “hERG current change (%, negative = inhibition) at 10uM” value was 9.91%.

Take `COc1ccc(C(=O)CSc2nn3c(=O)c(C(C)(C)C)nnc3s2)cc1`: the “hERG current change (%, negative = inhibition) at 10uM” value was 5.15%.

In the case of `CC(C)C(=O)Nc1nnc(-c2ccco2)s1`, the “hERG current change (%, negative = inhibition) at 10uM” value was 7.71%. Turning to `CCCc1nnc(NC(=O)CN2C(=O)C3C4C=CC(C4)C3C2=O)s1` (stereo not drawn), the “hERG current change (%, negative = inhibition) at 10uM” value is reported as -10.6%. For the molecule `[O-][N+]1=c2ccc(Nc3ccccc3)cc2=NC12CCCCC2`, the “hERG current change (%, negative = inhibition) at 10uM” value is -26.5%. To `COc1ccccc1CN(C)c1ccc(S(=O)(=O)N2CCN(C)CC2)cn1` belongs -31.6%.

Take `O=C(C(Cc1ccccc1)NS(=O)(=O)c1ccc(F)cc1)N1CCC2(CC1)OCCO2` (stereo not drawn): the “hERG current change (%, negative = inhibition) at 10uM” value is -12.9%. To `CC[C@@]12C(=O)N(c3cccc(F)c3)C(=O)N1[C@H](c1cccc(C)c1)[C@@H]1C(=O)N(Cc3ccccc3)C(=O)[C@@H]12` belongs 0.427%. To `O=C(CSc1nnnn1-c1ccccc1)Nc1ncc2c(n1)CC(c1ccccc1)CC2=O` (stereo not drawn) belongs 14.5%; to `CC[C@H](C)[C@H](NC(N)=O)C(=O)Nc1ccccc1F`, 1.36%.

For the molecule `COc1ccccc1-c1nnc(SC(C)C(=O)O)n1-c1ccccc1` (stereo not drawn), the “hERG current change (%, negative = inhibition) at 10uM” value came to 28.5%. To `CCOc1ccccc1NC=C1C(=O)OC2(CCCCC2)OC1=O` belongs 5.07%; to `Cc1ccc(NC(=O)c2ccco2)c(NC(=O)Cc2cccs2)c1`, -2.72%; to `NC(=O)COC(=O)c1ccccc1OCc1ccccc1`, 18.3%. For the molecule `CC[C@H](C)[C@H](NC(=O)OCc1ccccc1)C(=O)OCC(=O)N(C)CC(=O)Nc1ccccc1Cl`, the “hERG current change (%, negative = inhibition) at 10uM” value is given as -64.5%. On to `C#CCNc1nc(C(C)C)nc2c1nnn2Cc1ccccc1F`, for which the “hERG current change (%, negative = inhibition) at 10uM” value worked out at 2.68%. To `O=C(COC(=O)c1ccccn1)Nc1c(Cl)cccc1Cl` belongs 3.37%. The same measure for `Cc1cc(C)nc(SCc2ccc(C(=O)N/N=C/C3CCCCC3)cc2)n1`: -12.5%; for `CC1=C(C)CC(C(=O)NCCCN2CCCC2=O)C(C(=O)O)C1` (stereo not drawn): 5.98%; for `N/C(=N\OC(=O)CCCOc1ccccc1)c1cccc([N+](=O)[O-])c1`: -21.1%. The same measure for `Cc1cc(/C=N/n2c(COc3ccccc3C)nc3ccccc3c2=O)c(O)c([N+](=O)[O-])c1`: 10.7%; for `O=c1ccnc(Nc2ccc([N+](=O)[O-])cc2)[nH]1`: 3.04%; for `CCOC(=O)c1sc2ccc(S(=O)(=O)N3CC(C)CC(C)C3)cc2c1N` (stereo not drawn): 7.29%. Take `Cc1nc(N2CCN(c3ccccn3)CC2)c2c(C)c(C(=O)Nc3ccc(F)cc3Cl)sc2n1`: the “hERG current change (%, negative = inhibition) at 10uM” value was -41.6%. The same measure for `Cc1nc(NC(=O)CN2CCOCC2)sc1C(=O)N(C)C`: 15.3%; for `Cc1ccc(C(C)n2cc(C(=O)NCCN3CCN(C)CC3)nn2)cc1` (stereo not drawn): 0.955%; for `CCO[C@@H]1c2c(ccc3ccc(=O)oc23)OC(C)(C)[C@H]1O`: 27.4%. Consider `COc1cc(C)c(/C=C(\C#N)C(=O)Nc2ccc(C)cc2)cc1C(C)C`, for which the “hERG current change (%, negative = inhibition) at 10uM” value is on record as 11.1%. The same measure for `Fc1cccc(/C=N/Nc2ccc(Cl)nn2)c1`: 7.33%.

As for `CN(C)c1ccc(NC(=O)CSc2nc(N)c(C(=O)Nc3ccc(N(C)C)cc3)s2)cc1`, the “hERG current change (%, negative = inhibition) at 10uM” value stood at 14.2%. The same measure for `CCCCN(C)CCCNC(=O)c1cccc(N2CCCC2=O)c1`: 11.5%. To `CCOC(=O)CN1NC2(CCCCCC2)NC1=S` belongs 9.28%; to `CCOC(=O)c1cc2c(N)c(C(=O)c3ccc(Br)cc3)sc2[nH]c1=O`, -4.56%. As for `O=c1c2cc(Br)ccc2nc2n1CCCCC2`, the “hERG current change (%, negative = inhibition) at 10uM” value was -35.8%. For the molecule `c1csc(C2=NNC(=NC3CCCCC3)SC2)c1`, the “hERG current change (%, negative = inhibition) at 10uM” value is recorded as 2.39%. To `CN(CCOc1ccccc1)C(=O)c1cc(-c2ccco2)nc2ccccc12` belongs -23.1%; to `C/C(=N\NC(=O)c1ccc(CSc2nncn2C)cc1)c1cccs1`, 2.42%; to `O=C(N1CCN(c2ccc(F)cc2)CC1)C12CC3CC(CC(C3)C1)C2`, 5.05%.

On to `Fc1ccc(OCc2nnc(SCCN3CCOCC3)o2)cc1`, for which the “hERG current change (%, negative = inhibition) at 10uM” value is reported as -16.1%. To `COCCCNC(=O)COc1cc2c(c3oc(=O)c(C)c(C)c13)CCC(C)(C)O2` belongs -10.2%; to `C#Cc1ccc([C@@H]2C=C(C(=O)OCC=C)O[C@H](OCC)[C@H]2CCCO)cc1`, -27.6%.

For `CCc1ccc(-n2c(O)cnc2Nc2nc(C)cc(C)n2)cc1`, the “hERG current change (%, negative = inhibition) at 10uM” value is recorded as -8.25%. The same measure for `Cc1c(C(=O)Nc2ccccn2)oc2ccccc12`: -19.8%. The same measure for `CCc1ccc(Nc2nnc(SCc3cc(=O)n4ccsc4n3)s2)cc1`: -11.5%.

Consider `O=C(NCc1cccc(Cl)c1)c1cc(COc2ccc3ncccc3c2)on1`, for which the “hERG current change (%, negative = inhibition) at 10uM” value is on record as -4.85%.
